This note sets out measurements from article PMC12136788.

Some of the results follow.

Sequences and labels used below:
B1: ENSG00000136451:be:win_2151|3pUTR|ENSG00000136451|bound_else_gene|NA|bound_elsewhere_windowed (ssRNA)
RNA: GGGAGUUCUACAGUCCGACGAUCUAUGCAAAGCAUAUGAUAAUUUAUCAUUCUAACUUCAACGUAUAAUAGGGAUUGUGACCUGAUAUUUGGAGAUGUAAAUAUUGCUCAGCAUAUUAAUCCCGAUGGAAUAUAGCAUUGUAGCAACAGAGGAUUGAGCAUCA
B2: chr13:27440139:27440263:-|CDS|ENSG00000122033|unk|total|mutant (ssRNA)
RNA: GGGAGUUCUACAGUCCGACGAUCAAUGAAGGAAAAAAGACAAAAAAGAAUAAAACAGCUUUCCGUAACGUUGGAAGAAAAAUCCGUCAGCGAGUUAUUCACUUAUUUGAUGAGAAGGGCAAUGAUUUGGGAAACAUGCACCGACAACAGAGGAUUGAGCAUCA
B3: chr6:350928:351029:+|3pUTR|ENSG00000112679|unk|total|mutant (ssRNA)
RNA: GGGAGUUCUACAGUCCGACGAUCCCACAGAGUUCCGGCUGGUGCUGCCAAAAAGAAAAGCAACACCGAGUUUAAGUAUCCAGCCGUGAUUUGUAAACUUGUUUUUCAUUUGAAGCUGAAUAUAUACGCCGUCAUGUUUAUGUUCAACAGAGGAUUGAGCAUCA
B4: chr1:93365539:93365640:+|3pUTR|ENSG00000117505|unk|FALSE|unique (ssRNA)
RNA: GGGAGUUCUACAGUCCGACGAUCAGGAGGCAAAAUUGCACCCUGUUGAAAACCACCACCUUAGAUCAUCUAGGUUUUACUUUUAGGAUAAGACACUUGAGGGAAAGGCUGUGAAACUGAACCUCUGUUAGAAGCAACACACAGCAACAGAGGAUUGAGCAUCA
B5: ENSG00000070961:be:win_6101|3pUTR|ENSG00000070961|bound_else_gene|NA|bound_elsewhere_windowed (ssRNA)
RNA: GGGAGUUCUACAGUCCGACGAUCUAAAGAUCUUGGAUCCCAUUAUAUAGUAUGUAUAGCUGAAAUCUGUAAUUCAAUCACUUUUUCUCUUUUAUCCUCUAACCAAAAAAUUGUUUAAUUUUGCAUCCCAAAUGUUUUUAAUCUCAACAGAGGAUUGAGCAUCA
B6: chr14:55188946:55189174:-|CDS|ENSG00000126787|unk|total|mutant (ssRNA)
RNA: GGGAGUUCUACAGUCCGACGAUCAUUGCUCACCGGAAAUCACUGUCUCAGAAAGAAAACCGACAUAAGGAAUACGAACGAAACCGACACUUUGGUUUGAAAGAUGUAAACAUUCCAACCUUGGAAGGCCGAAUUCUUGUUGAACAACAGAGGAUUGAGCAUCA
B7: chr4:48579112:48579224:-|CDS|ENSG00000075539|unk|total|mutant (ssRNA)
RNA: GGGAGUUCUACAGUCCGACGAUCCUCUAUUGCCCCCGCUCGACCGAUUUACAAACUUCCGCAGAAUGGAACUCUUCUCCUAUCCGCCACCAGUUUGAUGUGAUCCGUCCAUCACAUAUAUGGAUAUUUGCACAUGUGACCCAACAACAGAGGAUUGAGCAUCA
B8: chr10:30461265:30461366:+|3pUTR|ENSG00000107968|unk|FALSE|unique (ssRNA)
RNA: GGGAGUUCUACAGUCCGACGAUCUCUUUGAGCCUUUAUUGGUAAAUUCUGGUAUACAUUGAAUUCAUUAUAAUUUGGGUGACUAGAACAACUUGAAGAUUGUAGCAAUAAGCUGGACUAGUGUCCUAAAAAUGGCUAACUGAUCAACAGAGGAUUGAGCAUCA
B9: chrX:153907366:153907962:-|three_prime_utr|ENSG00000089820|control|control|control (ssRNA)
RNA: GGGAGUUCUACAGUCCGACGAUCAGGCUUCUCCCGGGGCCCUGGGGCCCCAGCCUCACCCUCAGCUUCCCACCCCCAGGGCCUAGACACGACCCCCAAGCCACACUGAGGUGCCGCUGCUGGAGAUGCGUGCCCCCGGCGGCUCAACAGAGGAUUGAGCAUCA
B10: ENSG00000136451:be:win_2551|3pUTR|ENSG00000136451|bound_else_gene|NA|bound_elsewhere_windowed (ssRNA)
RNA: GGGAGUUCUACAGUCCGACGAUCUCACUAGAGUUUAUGUCUUAUAUUAAAUUGUAUACAGUUUUUAUUCUAACCACUAACUAGGUAGUGUAUGCCCCUUCAGAACAUGCAGAGUGUAUCUUUUUUUAAAUUUCUCCUUCCGUUCAACAGAGGAUUGAGCAUCA
B11: chr16:22286016:22286117:+|3pUTR|ENSG00000103319|msi1|FALSE|unique (ssRNA)
RNA: GGGAGUUCUACAGUCCGACGAUCCUGAGCCCAGCCAAGACUUCAGUGUUGACUGCUUUGGAGGCACAAACCCAUGCAAGCGUUAGUUCCAAAGUUCAGUGUGUACCCUUAAAUGAACAAUGAAGCAGGUAAAAUUACCCUUGACAACAGAGGAUUGAGCAUCA
B12: chr7:33006061:33006162:+|3pUTR|ENSG00000122642|msi1_unk|total|mutant (ssRNA)
RNA: GGGAGUUCUACAGUCCGACGAUCGGCAUCUCAGACCACAAACCGAGAAUUUGAUUCCUCAUUUGCCACAUAAGUCAUCUGCUCCGCUUUUCCUUUCCUUUUUUUUUUUUUUUUUUUUUCUGGAGGCAGAGUCUCCCUUUGUCGCAACAGAGGAUUGAGCAUCA
B13: chr8:72021249:72022905:-|three_prime_utr|ENSG00000104321|control|control|control (ssRNA)
RNA: GGGAGUUCUACAGUCCGACGAUCGCAGAUAUGUUCAAAUUGGACUGGACUUUGAUGAGAUAUAAUCUCAUUAUUUGAAUGGGUAGAAAAUGAAUUUGCUAGAACACACAUUUUUAAUGAAAAGAAGUAAUAAAUGUAACUAUUCAACAGAGGAUUGAGCAUCA
B14: chr11:61866713:61866887:+|3pUTR|ENSG00000134824|msi1|total|mutant (ssRNA)
RNA: GGGAGUUCUACAGUCCGACGAUCCUCUCCUGUCUGAACCUGCCCUUACUGUGUUUAACCUGUUGCUCCAGGAUGCAUUCUGACCGGAGGGGGCGGCAGGGCUGGGCCUUGUGACAAUCUGCCUUUCACCACAUGGCCUUGCCUCAACAGAGGAUUGAGCAUCA
B15: ENSG00000070961:be:win_301|CDS|ENSG00000070961|bound_else_gene|NA|bound_elsewhere_windowed (ssRNA)
RNA: GGGAGUUCUACAGUCCGACGAUCUUAGUAUGGGAAGCAUUACAAGAUGUCACUUUAAUUAUAUUAGAAAUUGCAGCCAUAGUAUCAUUGGGCCUUUCUUUUUAUCAGCCUCCAGAAGGGGAUAAUGCACUUUGUGGAGAAGUUCAACAGAGGAUUGAGCAUCA
B16: chr7:123692404:123692516:-|CDS|ENSG00000106299|unk|total|mutant (ssRNA)
RNA: GGGAGUUCUACAGUCCGACGAUCCCUGCCUUCUGAUGGGGACCAUCAGGUUCCAACUACUGCAGGAAACAAAGCAGCUCUUUCCGAUCAAAUCCGAGAGGGUGCUCAGCUAAAAAAAGUGGAGCAGAACAGUCGGCCAGUGUCCAACAGAGGAUUGAGCAUCA
B17: chrX:21994482:21994713:+|3pUTR|ENSG00000102172|msi1|FALSE|unique (ssRNA)
RNA: GGGAGUUCUACAGUCCGACGAUCCAGCUGAAGGAUGGUUAGACAGCACAGCGAAGACUGCUAAAUGCACUGACCCCCCCCAUUAGAAUGUGAUUUUUGUUCCUUUUUAUUUCUCUGUGGGCUUUUGUUUUUGUUUUUGUUUUGCAACAGAGGAUUGAGCAUCA
B18: chr12:88196262:88196297:+|3pUTR|ENSG00000139324|msi1_unk|FALSE|overlapping (ssRNA)
RNA: GGGAGUUCUACAGUCCGACGAUCUGUAUACUUGUUUUUAACUUUAAAUGUAAUUUUUAAUCAGGUAAAGUUUGACACAUGUAUAGCUACAUACACACAUUUUUAAUGGUGCUCAUAUAUACUGUAUUUUUUGUUGUUUAGUUUCAACAGAGGAUUGAGCAUCA
B19: chr1:85021069:85021276:-|CDS|ENSG00000055732|control|control|control (ssRNA)
RNA: GGGAGUUCUACAGUCCGACGAUCGAUAUGUUUGCCACGUUUGCAAAAAUGCAGCAAAAAAGUUACUUAGUCUGGCUGUUUAGUAGAAUUUACCUCUACUCAUUCAUCAGCCUCUUUAUAUAUAUGAUUUUAAGUCUUUUCAUUCAACAGAGGAUUGAGCAUCA
B20: chr15:52755052:52757554:-|three_prime_utr|ENSG00000169856|control|control|control (ssRNA)
RNA: GGGAGUUCUACAGUCCGACGAUCAAACCUCGGUGGAAAAGCUUUAAAUUAAAAAAAAUUUUUAAAAGACCAGGACCUCAAGAUAGCAGGUUUAUACUUAGAAAUAUUUGAAGAAAAAAAAGCGUUAUUUAUAGUCCAAAGAAACAACAGAGGAUUGAGCAUCA
B21: chr19:2853326:2853433:+|CDS|ENSG00000186300|unk|FALSE|unique (ssRNA)
RNA: GGGAGUUCUACAGUCCGACGAUCCAAUGUGGGAAAACUUUCAAUUGGCCCAUAUCUUUACGAAAACAUAUGAGAACACAUACUAGAGAGAAACCCUAUGAAUGUAAGCAGUGUGGGAAAGCCUUCAGCUUGUCUGCUUGCUUUCAACAGAGGAUUGAGCAUCA
B22: chr6:152987361:152990084:-|three_prime_utr|ENSG00000112031|control|control|control (ssRNA)
RNA: GGGAGUUCUACAGUCCGACGAUCAGAUUAUCUACUGGAUGAACUUGUACAGUCAUUGAAGGAAUACGCCGAUUAUGAAUCUUUAGUAGAAAUUAUUUCCCAAAAAGUUUAAGUUGAUUUGUUAUUUAUAGACUUUCGUAGCUUCAACAGAGGAUUGAGCAUCA

For the experiment, the target named is T1, UNK ZnF1-6 (called full-length) (human, UniProt Q9C0B0 30-357).
T1 sequence: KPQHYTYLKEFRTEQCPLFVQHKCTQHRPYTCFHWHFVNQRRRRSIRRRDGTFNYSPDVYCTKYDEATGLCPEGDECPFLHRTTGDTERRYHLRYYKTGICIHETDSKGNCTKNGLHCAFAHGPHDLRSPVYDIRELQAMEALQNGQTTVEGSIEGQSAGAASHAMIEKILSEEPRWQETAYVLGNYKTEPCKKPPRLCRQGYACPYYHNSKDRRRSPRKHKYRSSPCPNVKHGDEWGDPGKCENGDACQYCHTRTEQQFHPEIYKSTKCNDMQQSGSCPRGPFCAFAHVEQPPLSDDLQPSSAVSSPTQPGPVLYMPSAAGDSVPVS
The experiment can be described thus: nsRBNS (natural sequence RNA bind-n-seq); RBNS binding buffer (assumed for nsRBNS): 25 mM Tris pH 7.5, 150 mM KCl, 3 mM MgCl2, 0.01% Triton X-100, 500 ug/ml BSA, 20 U/ml SUPERase-In, 4 C; UNK is unkempt and MSI1 is Musashi-1; names of the RNAs are library labels; protein concentration not given here; high values mean tight binding.
Regarding B1, the binding signal worked out at 0.422 enrichment R.

B2: the binding signal was determined as 0.393 enrichment R.

Molecule B3 returned a binding signal of 0.345 enrichment R.

Consider B4, for which the binding signal amounted to 5.47 enrichment R.

The molecule B5 returned a binding signal of 39 enrichment R.

Regarding B6, the binding signal was found to be 0.207 enrichment R.

For the molecule B7, the binding signal came to 0.64 enrichment R.

On to B8, for which the binding signal is 0.352 enrichment R.

Turning to B9, the binding signal is 0.903 enrichment R.

Turning to B10, the binding signal amounted to 11.6 enrichment R.

As to B11, the binding signal is 0.467 enrichment R.

B12: the binding signal worked out at 2.85 enrichment R.

For the molecule B13, the binding signal turned out to be 3.2 enrichment R.

Turning to B14, the binding signal stood at 0.758 enrichment R.

In the case of B15, the binding signal amounted to 2.4 enrichment R.

Turning to B16, the binding signal stood at 0.493 enrichment R.

With B17, the binding signal turned out to be 2.3 enrichment R.

On to B18, for which the binding signal stood at 3.56 enrichment R.

In turn, B19 displayed a binding signal of 1.95 enrichment R.

B20 returned a binding signal of 4.65 enrichment R.

B21 displayed a binding signal of 0.336 enrichment R.

Consider B22, for which the binding signal was found to be 1.84 enrichment R.
